Source: PubChem BioAssay (NCI)
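1) Cells in 96-well plates. 2) Compound, 48 h, 5 concentrations. 3) Linear interpolation between surrounding doses. 4) Unreached endpoint = highest concentration. GI50 is the concentration that inhibits growth by half. Definition used: TGI = concentration required for complete inhibition of growth.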

Test system: NCI-H322M lung
Experiment: NCI tumour cell line growth inhibition, 48 h

SMILES	GI50	TGI
O=C1Nc2cc(-c3ccc(NS(=O)(=O)c4ccc(C(F)(F)F)cc4)cc3)ccc2/C1=C/c1ccc[nH]1	1.32 µM	6.64 µM
O=C1Nc2ccc(Cl)cc2/C1=C/c1ccc(OCc2ccc(Br)cc2F)cc1	3.8 µM	21 µM
